# Laboratory results from the supplement of paper PMC8728848.
# This is one part of the list.
# How the values were obtained:
# Experiment in all cases: glycan array binding signal (z-score within array); higher = stronger binding
# Settings in all cases: glycan notation: IUPAC condensed, linker removed
# [1] = molecular target: GlcNAc(b1-2)Man(a1-3)[GlcNAc(b1-2)Man(a1-6)]Man(b1-4)GlcNAc(b1-4)GlcNAc
# Summary of the method: (§1)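 Arrays were curated from the Consortium for Functional Glycomics database, 3228 in total, and kept only where the protein sequence was available. Binding is expressed as a within-array Z-score. This score was averaged across arrays of the same protein sequence at different concentrations or buffers and across linkers, and negative values can be read as non-binding.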
# [2] = molecular target: GlcNAc(b1-2)Man(a1-3)[GlcNAc(b1-2)Man(a1-6)]Man(b1-4)GlcNAc(b1-4)[Fuc(a1-6)]GlcNAc
# Summary of the method: as §1
# [3] = molecular target: GlcNAc(b1-2)Man(a1-3)[GlcNAc(b1-4)][GlcNAc(b1-2)Man(a1-6)]Man(b1-4)GlcNAc(b1-4)GlcNAc
# Summary of the method: as §1
# [4] = molecular target: GlcNAc(b1-2)Man(a1-3)[GlcNAc(b1-4)][GlcNAc(b1-2)Man(a1-6)]Man(b1-4)GlcNAc(b1-4)[Fuc(a1-6)]GlcNAc
# Summary of the method: as §1
# [5] = molecular target: GlcNAc(b1-2)[GlcNAc(b1-4)]Man(a1-3)[GlcNAc(b1-2)Man(a1-6)]Man(b1-4)GlcNAc(b1-4)GlcNAc
# Summary of the method: as §1
# [6] = molecular target: GlcNAc(b1-2)[GlcNAc(b1-4)]Man(a1-3)[GlcNAc(b1-4)][GlcNAc(b1-2)Man(a1-6)]Man(b1-4)GlcNAc(b1-4)GlcNAc
# Summary of the method: as §1
# [7] = molecular target: GlcNAc(b1-2)[GlcNAc(b1-4)]Man(a1-3)[GlcNAc(b1-4)][GlcNAc(b1-2)[GlcNAc(b1-6)]Man(a1-6)]Man(b1-4)GlcNAc(b1-4)GlcNAc
# Summary of the method: as §1
# [8] = molecular target: GlcNAc(b1-2)[GlcNAc(b1-4)]Man(a1-3)[GlcNAc(b1-4)][GlcNAc(b1-2)[GlcNAc(b1-6)]Man(a1-6)]Man(b1-4)GlcNAc(b1-4)[Fuc(a1-6)]GlcNAc
# Summary of the method: as §1
# [9] = molecular target: GlcNAc(b1-2)[GlcNAc(b1-6)]Man(a1-6)[GlcNAc(b1-2)Man(a1-3)]Man(b1-4)GlcNAc(b1-4)GlcNAc
# Summary of the method: as §1
# [10] = molecular target: GlcNAc(b1-2)[GlcNAc(b1-6)]Man(a1-6)[GlcNAc(b1-2)Man(a1-3)]Man(b1-4)GlcNAc(b1-4)[Fuc(a1-6)]GlcNAc
# Summary of the method: as §1
# [11] = molecular target: GlcNAc(b1-2)[GlcNAc(b1-6)]Man(a1-6)[GlcNAc(b1-4)][GlcNAc(b1-2)Man(a1-3)]Man(b1-4)GlcNAc(b1-4)GlcNAc
# Summary of the method: as §1
# GlcNAc(b1-3)Fuc = molecular target: GlcNAc(b1-3)Fuc
# Summary of the method: as §1
# GlcNAc(b1-3)Gal = molecular target: GlcNAc(b1-3)Gal
# Summary of the method: as §1
# [12] = molecular target: GlcNAc(b1-3)Gal(b1-3)GalNAc
# Summary of the method: as §1
# GlcNAc(b1-3)Gal(b1-4)Glc = molecular target: GlcNAc(b1-3)Gal(b1-4)Glc
# Summary of the method: as §1
# [13] = molecular target: GlcNAc(b1-3)Gal(b1-4)GlcNAc
# Summary of the method: as §1
# [14] = molecular target: GlcNAc(b1-3)Gal(b1-4)GlcNAc(b1-2)Man(a1-3)[GlcNAc(b1-3)Gal(b1-4)GlcNAc(b1-2)Man(a1-6)]Man(b1-4)GlcNAc(b1-4)GlcNAc
# Summary of the method: as §1
# [15] = molecular target: GlcNAc(b1-3)Gal(b1-4)GlcNAc(b1-2)Man(a1-3)[GlcNAc(b1-3)Gal(b1-4)GlcNAc(b1-2)Man(a1-6)]Man(b1-4)GlcNAc(b1-4)[Fuc(a1-6)]GlcNAc
# Summary of the method: as §1
# [16] = molecular target: GlcNAc(b1-3)Gal(b1-4)GlcNAc(b1-2)[GlcNAc(b1-3)Gal(b1-4)GlcNAc(b1-6)]Man(a1-6)[GlcNAc(b1-3)Gal(b1-4)GlcNAc(b1-2)Man(a1-3)]Man(b1-4)GlcNAc(b1-4)GlcNAc
# Summary of the method: as §1
# [17] = molecular target: GlcNAc(b1-3)Gal(b1-4)GlcNAc(b1-3)Gal(b1-4)GlcNAc
# Summary of the method: as §1
# [18] = molecular target: GlcNAc(b1-3)Gal(b1-4)GlcNAc(b1-3)Gal(b1-4)GlcNAc(b1-2)Man(a1-3)[GlcNAc(b1-3)Gal(b1-4)GlcNAc(b1-3)Gal(b1-4)GlcNAc(b1-2)Man(a1-6)]Man(b1-4)GlcNAc(b1-4)GlcNAc
# Summary of the method: as §1
# [19] = molecular target: GlcNAc(b1-3)Gal(b1-4)GlcNAc(b1-3)Gal(b1-4)GlcNAc(b1-2)Man(a1-3)[GlcNAc(b1-3)Gal(b1-4)GlcNAc(b1-3)Gal(b1-4)GlcNAc(b1-2)Man(a1-6)]Man(b1-4)GlcNAc(b1-4)[Fuc(a1-6)]GlcNAc
# Summary of the method: as §1
# [20] = molecular target: GlcNAc(b1-3)Gal(b1-4)GlcNAc(b1-3)Gal(b1-4)GlcNAc(b1-2)[GlcNAc(b1-3)Gal(b1-4)GlcNAc(b1-3)Gal(b1-4)GlcNAc(b1-6)]Man(a1-6)[GlcNAc(b1-3)Gal(b1-4)GlcNAc(b1-3)Gal(b1-4)GlcNAc(b1-2)Man(a1-3)]Man(b1-4)GlcNAc(b1-4)[Fuc(a1-6)]GlcNAc
# Summary of the method: as §1
# [21] = molecular target: GlcNAc(b1-3)Gal(b1-4)GlcNAc(b1-3)Gal(b1-4)GlcNAc(b1-3)Gal(b1-4)GlcNAc(b1-2)Man(a1-3)[GlcNAc(b1-3)Gal(b1-4)GlcNAc(b1-3)Gal(b1-4)GlcNAc(b1-3)Gal(b1-4)GlcNAc(b1-2)Man(a1-6)]Man(b1-4)GlcNAc(b1-4)GlcNAc
# Summary of the method: as §1
# [22] = molecular target: GlcNAc(b1-3)Gal(b1-4)GlcNAc(b1-3)Gal(b1-4)GlcNAc(b1-3)Gal(b1-4)GlcNAc(b1-2)Man(a1-3)[GlcNAc(b1-3)Gal(b1-4)GlcNAc(b1-3)Gal(b1-4)GlcNAc(b1-3)Gal(b1-4)GlcNAc(b1-2)Man(a1-6)]Man(b1-4)GlcNAc(b1-4)[Fuc(a1-6)]GlcNAc
# Summary of the method: as §1
# [23] = molecular target: GlcNAc(b1-3)Gal(b1-4)GlcNAc(b1-3)Gal(b1-4)GlcNAc(b1-3)Gal(b1-4)GlcNAc(b1-2)[GlcNAc(b1-3)Gal(b1-4)GlcNAc(b1-3)Gal(b1-4)GlcNAc(b1-3)Gal(b1-4)GlcNAc(b1-6)]Man(a1-6)[GlcNAc(b1-3)Gal(b1-4)GlcNAc(b1-3)Gal(b1-4)GlcNAc(b1-3)Gal(b1-4)GlcNAc(b1-2)Man(a1-3)]Man(b1-4)GlcNAc(b1-4)[Fuc(a1-6)]GlcNAc
# Summary of the method: as §1
# [24] = molecular target: GlcNAc(b1-3)Gal(b1-4)GlcNAc(b1-3)Gal(b1-4)GlcNAc(b1-3)Gal(b1-4)GlcNAc(b1-3)Gal(b1-4)GlcNAc(b1-2)Man(a1-3)[GlcNAc(b1-3)Gal(b1-4)GlcNAc(b1-3)Gal(b1-4)GlcNAc(b1-3)Gal(b1-4)GlcNAc(b1-3)Gal(b1-4)GlcNAc(b1-2)Man(a1-6)]Man(b1-4)GlcNAc(b1-4)GlcNAc
# Summary of the method: as §1
# [25] = molecular target: GlcNAc(b1-3)Gal(b1-4)GlcNAc(b1-3)Gal(b1-4)GlcNAc(b1-3)Gal(b1-4)GlcNAc(b1-3)Gal(b1-4)GlcNAc(b1-2)Man(a1-3)[GlcNAc(b1-3)Gal(b1-4)GlcNAc(b1-3)Gal(b1-4)GlcNAc(b1-3)Gal(b1-4)GlcNAc(b1-3)Gal(b1-4)GlcNAc(b1-2)Man(a1-6)]Man(b1-4)GlcNAc(b1-4)[Fuc(a1-6)]GlcNAc
# Summary of the method: as §1
# [26] = molecular target: GlcNAc(b1-3)Gal(b1-4)GlcNAc(b1-3)Gal(b1-4)GlcNAc(b1-3)Gal(b1-4)GlcNAc(b1-3)Gal(b1-4)GlcNAc(b1-2)[GlcNAc(b1-3)Gal(b1-4)GlcNAc(b1-3)Gal(b1-4)GlcNAc(b1-3)Gal(b1-4)GlcNAc(b1-3)Gal(b1-4)GlcNAc(b1-6)]Man(a1-6)[GlcNAc(b1-3)Gal(b1-4)GlcNAc(b1-3)Gal(b1-4)GlcNAc(b1-3)Gal(b1-4)GlcNAc(b1-3)Gal(b1-4)GlcNAc(b1-2)Man(a1-3)]Man(b1-4)GlcNAc(b1-4)[Fuc(a1-6)]GlcNAc
# Summary of the method: as §1
# [27] = molecular target: GlcNAc(b1-3)Gal(b1-4)GlcNAc(b1-3)Gal(b1-4)GlcNAc(b1-3)GalNAc
# Summary of the method: as §1
binder,measurement,setting,value
Blon2468mut (Bifidobacterium longum) (protein) MTFIKQMMPRYVASMTAGIVAAAMAATCAFAPVANADAVSPTQETIQSTGRHFMVYYRAWRDVTMKGVNTDLPDDNWISMYDIPYGVDVVNIFSYVPSGQEEQAQPFYDKLKSDYAPYLHSRGIKLVRGIDYTGVAVNGFRTFMKEQNKTESEATEADYDAYAKQVIDKYMISVGLDGLDIDMQAHPNDADVKISDNVIRALSKHIGPKSAKPDTTMFLYDTNGSYLNPFKNVAECFDYVAYQQYGSSSDRTARAAADYQPYIGNEFVPGLTFPEEGDMNNRWYDATEPYEESHFYQVASYVREHNLGGMFVYALDRDGRNYDEDLRRIVPSNLLWTKTAIAESEGMALDTAKTAANHYLDRMSLRQVIDDNAASADKARDMVGKAANLYETNKAVLGGDYGEGFSNTYDPTLEAGLLGIDISVLQQQIDKSSEIIGADTAESDAKTALRMARDAAIDGLTGKIYTADQVSAWSQALKAALDATVPVPTPDSTDQNGNRDKVTNHKVQGQPKQLSATGISTDIIVAVGVTLAIAGVALSLSRKLS,glycan array binding signal (z-score),[1],-0.069
same,glycan array binding signal (z-score),[2],-0.026
same,glycan array binding signal (z-score),[3],-0.084
same,glycan array binding signal (z-score),[4],-0.083
same,glycan array binding signal (z-score),[5],-0.062
same,glycan array binding signal (z-score),[6],-0.086
same,glycan array binding signal (z-score),[7],-0.091
same,glycan array binding signal (z-score),[8],-0.057
same,glycan array binding signal (z-score),[9],-0.071
same,glycan array binding signal (z-score),[10],-0.077
same,glycan array binding signal (z-score),[11],-0.036
same,glycan array binding signal (z-score),GlcNAc(b1-3)Fuc,-0.07
same,glycan array binding signal (z-score),GlcNAc(b1-3)Gal,-0.088
same,glycan array binding signal (z-score),[12],-0.045
same,glycan array binding signal (z-score),GlcNAc(b1-3)Gal(b1-4)Glc,-0.061
same,glycan array binding signal (z-score),[13],-0.09
same,glycan array binding signal (z-score),[14],-0.052
same,glycan array binding signal (z-score),[15],-0.061
same,glycan array binding signal (z-score),[16],-0.046
same,glycan array binding signal (z-score),[17],-0.083
same,glycan array binding signal (z-score),[18],-0.057
same,glycan array binding signal (z-score),[19],-0.036
same,glycan array binding signal (z-score),[20],-0.043
same,glycan array binding signal (z-score),[21],-0.062
same,glycan array binding signal (z-score),[22],-0.069
same,glycan array binding signal (z-score),[23],-0.074
same,glycan array binding signal (z-score),[24],-0.05
same,glycan array binding signal (z-score),[25],-0.052
same,glycan array binding signal (z-score),[26],-0.038
same,glycan array binding signal (z-score),[27],-0.065
